Out of some 310,000 compounds screened, about 14,000 (4.5%) showed an effect of 50% or more. Effects have a minus sign here. The list shows a part of the results.
The molecules below were run against human ether-à-go-go-related gene (hERG) potassium channel (human, UniProt Q12809) (assay: primary screen, population patch clamp on CHO cells stably expressing hERG).
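Further: peak tail current of the secondary pulse compared with the same well before compound.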

human ether-à-go-go-related gene (hERG) potassium channel, sequence (Q12809 whole entry, looked up): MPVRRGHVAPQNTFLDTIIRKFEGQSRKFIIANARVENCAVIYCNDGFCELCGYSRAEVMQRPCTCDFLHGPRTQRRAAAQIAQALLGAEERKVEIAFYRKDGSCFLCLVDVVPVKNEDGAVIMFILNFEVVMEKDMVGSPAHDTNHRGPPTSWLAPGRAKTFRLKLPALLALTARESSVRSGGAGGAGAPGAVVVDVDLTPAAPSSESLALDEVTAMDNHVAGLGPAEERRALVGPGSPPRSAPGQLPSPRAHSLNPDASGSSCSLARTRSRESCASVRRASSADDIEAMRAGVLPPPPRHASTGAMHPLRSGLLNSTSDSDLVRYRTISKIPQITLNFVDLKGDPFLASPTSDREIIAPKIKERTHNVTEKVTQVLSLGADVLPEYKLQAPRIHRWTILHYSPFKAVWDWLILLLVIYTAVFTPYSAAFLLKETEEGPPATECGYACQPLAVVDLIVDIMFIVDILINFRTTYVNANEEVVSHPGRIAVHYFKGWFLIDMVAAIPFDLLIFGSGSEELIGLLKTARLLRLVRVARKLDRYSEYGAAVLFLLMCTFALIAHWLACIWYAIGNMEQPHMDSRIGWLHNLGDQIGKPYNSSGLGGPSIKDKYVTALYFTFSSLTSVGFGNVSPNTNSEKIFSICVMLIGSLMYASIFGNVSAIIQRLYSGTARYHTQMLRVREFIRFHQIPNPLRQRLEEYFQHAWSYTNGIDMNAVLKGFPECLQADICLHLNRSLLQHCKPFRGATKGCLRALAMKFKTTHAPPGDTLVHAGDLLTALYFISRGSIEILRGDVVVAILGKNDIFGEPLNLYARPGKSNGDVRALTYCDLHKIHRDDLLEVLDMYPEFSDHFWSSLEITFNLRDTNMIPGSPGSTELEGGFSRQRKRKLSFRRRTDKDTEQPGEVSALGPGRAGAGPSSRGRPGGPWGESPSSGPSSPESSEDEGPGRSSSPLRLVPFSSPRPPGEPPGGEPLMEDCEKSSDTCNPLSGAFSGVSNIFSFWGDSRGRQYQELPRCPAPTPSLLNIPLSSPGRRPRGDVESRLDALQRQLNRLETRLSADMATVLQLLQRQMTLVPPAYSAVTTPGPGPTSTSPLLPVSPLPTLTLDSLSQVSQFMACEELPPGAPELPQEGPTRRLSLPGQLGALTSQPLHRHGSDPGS

SMILES	hERG current change (%, negative = inhibition) at 10uM [%]
Cc1cc(C(=O)OCC(N)=O)c(C)n1-c1ccccc1	14.4
O=C(O)c1cccc(CSc2nnc(COc3ccccc3)o2)c1	-7.66
CCc1ccc(NC(=O)COc2ccc(Br)cn2)cc1	5.94
Cc1cc(NC(=O)CCSc2nc(-c3ccco3)cc(C(F)(F)F)n2)no1	3.17
COc1cc(OC)c2c(-c3ccccc3)cc(=O)oc2c1C(CCN1CCCCC1)c1ccc2c(c1)OCO2 (stereo not drawn)	-53.2
C/C(=N\Nc1cc(-c2ccccc2)nc(-c2ccc(Br)cc2)n1)c1cccc(N)c1	11.8
S=C(Nc1ccccn1)NC1CCCC1	-17.6
CN(C)CCN(C(=O)COc1ccc(Cl)cc1)c1nc2cc3c(cc2s1)OCO3	-5.52
CCOc1ccc(C(=O)NC(=S)N(Cc2ccccc2)Cc2ccccc2)cc1	-6.27
COc1ccc(C(=O)NC(=S)Nc2ccc(S(=O)(=O)Nc3cc(OC)nc(OC)n3)cc2)cc1	11.1
CCSc1cc(N2CCCC2)nc(-c2ccc(F)cc2)n1	-3.94
COc1cc(OC)cc(C(=O)N[C@H](C(=O)OCC(=O)N2CCc3ccccc32)C(C)C)c1	-4.37
COc1ccc(CN2C(=O)CNC2=S)cc1	18.4
Cn1c(=O)n(C)c2cc(S(=O)(=O)NCC(=O)O)ccc21	8.81
Cc1ccc(NS(=O)(=O)c2cccc(C(=O)O)c2)c(C)c1	13.8
O=C(CSc1nc2ccccc2c(=O)n1-c1ccccc1)N1CCN(CCO)CC1	17.3
COC(=O)N1[C@H](Cc2ccccc2)C=C[C@]1(C)C(=O)NCc1ccccn1	15.2
Cc1ccc(NC(=O)CN(C)C(=O)Cn2cc(C(F)(F)F)ccc2=O)cc1	-12.4
CC(C)CNC(=O)C(=O)NN=C1CCCCCC1	4.66
COc1ccc(-c2nn(-c3ccccc3)cc2C(=O)Nc2nccs2)cc1	-11.2
COc1cc(Cl)ccc1OCc1cc(C(=O)N2C[C@]3(C)C[C@H]2CC(C)(C)C3)no1	-8.91
O=C(NCc1ccc(N2CCCC2=O)cc1)c1cnccn1	34.6
COc1ccc(C(=O)CCC(=O)N2CCN(c3ccc(N4CCOCC4)nn3)CC2)cc1	-12.8
COc1ccc(CNc2nc(NCc3ccc(OC)cc3)n(C(=O)c3ccccc3[N+](=O)[O-])n2)cc1	-8.02
CCC1=Nc2cc(C(=O)NCc3ccco3)ccc2Sc2ccc(C)cc21	-0.612
CCN(C(=S)NC(=O)c1ccccc1Br)C1CCCCC1	9.24
C#CCNC(=O)C1=C[C@H](c2ccc3c(c2)OCO3)[C@@H](CCCO)[C@H](OCC)O1	2.22

SMILES	hERG current change (%, negative = inhibition) at 10uM [%]
COc1cccc(NC(=S)Nc2cccnc2)c1	-3.48
CCC(Sc1nc2ccccc2o1)C(=O)Nc1nnc(C)s1 (stereo not drawn)	-12.4
CCN(CC)S(=O)(=O)c1ccc(Cl)c(NC(=O)COC(=O)/C=C/c2ccc(O)c(OC)c2)c1	20.7
Cc1nn(Cc2ccc(Cl)cc2)c2sc(C(=O)O)cc12	31.1
Cc1ccc(S(=O)(=O)N2CCCCC2)cc1NC(=O)CNc1ccccc1N1CCCC1=O	-13
Cc1ccc(C)c(NC(=O)CSc2nnc(-c3cc(C)[nH]n3)n2N)c1	-7.21
CCCC(=O)Nc1cc(C)c2c(=O)oc3ccccc3c2n1	-5.16
N#CC1=C(N)Oc2cc(O)ccc2C1c1ccncc1 (stereo not drawn)	1.64
Cc1ccc(OCC(=O)OCC(=O)c2cccc([N+](=O)[O-])c2)cc1C	7.05
COc1ccc(NC(=O)Cn2nnc(C(=O)NCc3ccc(C)cc3)c2N)cc1Cl	6.93
O=C1CCCC(O)=C1C=Nc1ccc2c(c1)oc1ccccc12	8.69
FC(F)(F)c1cnc(-c2cnc(-c3cccnc3)nc2)c(Cl)c1	11.6
O=C(Cc1ccc(F)cc1)OCN1C(=O)c2ccccc2C1=O	-11.9
O=C(c1ccncc1)N1N=C2CCCCCC2C1(O)C(F)(F)F (stereo not drawn)	13.2
Cc1ccccc1N(CC(=O)NCc1ccc2c(c1)OCO2)C(=O)C1CSC(=O)C1 (stereo not drawn)	-7.91
COCCNC(=O)CNC(c1ccccc1)c1ccccc1.O=C(O)C(=O)O	6.88
CCC1=C(OC(=O)N(CC)CC)N2C(=O)OC(=NCC(=O)OC)[C@]2(Cc2ccccc2)[C@H]2C1=CC[C@H]1C(=O)N(c3ccccc3)C(=O)[C@H]12	-23.7
COc1ccc(CCNC(=O)COC(=O)c2cnc(C)cn2)cc1OC	13.1
CCN1CCN(CC(=O)N2c3ccccc3CC2C)CC1.O=C(O)C(=O)O (stereo not drawn)	2.13
COc1ccc(C(=O)Oc2cccc(Nc3ncnc4ccccc34)c2)cc1OC	-21.3
Cc1ccc(N(CC(=O)NCc2ccccc2)C(=O)c2csnn2)c(C)c1	16.3
COc1ccc(S(=O)(=O)N2CCN(C(=O)NC3CCCCC3)CC2)cc1	-21.4
O=C(NC1CCCC1)c1ncn[nH]1	7.66
CC(=O)N(c1ccc(C(F)(F)F)cc1)S(=O)(=O)c1ccc(N2C(=O)CCC2=O)cc1	13.1
CC1CN(Cc2nc3c(c(=O)[nH]c(=O)n3C)n2CC(N)=O)CC(C)O1 (stereo not drawn)	-1.64
COc1ccc(Nc2nc(C)cc(C)c2C#N)cc1OC	10.3
Cc1cccc(C)c1NC(=O)CNC(=O)CCCN1C(=O)c2cccc3cccc(c23)C1=O	7.37
